# Results: PMC5882232 (Nature Communications, 2013)
# B1: TRPA1a-EGFP (mouse TRPA1a, full-length TRPA1, tagged with EGFP) (natural protein)
# chain: [… about 700 residues …]MMNLGSYCLGLIPMTLLVVKIQPGMAFNSTGIINGTSSTHEERIDTLNSFPIKICMILVFLSSIFGYCKEVIQIFQQKRNYFLDYNNALEWVIYTTSIIFVLPLFLNIPAYMQWQCGAIAIFFYWMNFLLYLQRFENCGIFIVMLEVIFKTLLRSTGVFIFLLLAFGLSFYVLLNFQDAFSTPLLSLIQTFSMMLGDINYRDAFLEPLFRNELAYPVLTFGQLIAFTMFVPIVLMNLLI[… about 150 residues …]
# Molecular target: the molecule itself
# Experiment: native gel or EMSA
protein,measurement,value
B1,stoichiometry N,4
